Measurements published in PMC12136788.
This is one part of the list.

T1: UNK ZnF1-6 (called full-length) (human, UniProt Q9C0B0 30-357)
T1 sequence: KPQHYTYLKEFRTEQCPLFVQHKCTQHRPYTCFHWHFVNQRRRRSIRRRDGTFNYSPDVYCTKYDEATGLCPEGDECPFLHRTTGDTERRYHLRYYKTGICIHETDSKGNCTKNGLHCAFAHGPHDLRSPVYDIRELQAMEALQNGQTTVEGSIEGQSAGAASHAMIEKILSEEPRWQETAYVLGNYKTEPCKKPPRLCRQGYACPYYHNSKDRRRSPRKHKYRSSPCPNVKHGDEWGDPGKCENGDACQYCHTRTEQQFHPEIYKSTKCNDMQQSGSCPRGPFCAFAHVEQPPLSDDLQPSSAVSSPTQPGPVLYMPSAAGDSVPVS

B1: chr19:51964856:51966214:-|CDS|ENSG00000256683|control|control|control (ssRNA)
RNA: GGGAGUUCUACAGUCCGACGAUCGCCUUCUGUGGCCCCUCAGACAUCAUUAAACAUCAGCGGCCUCCUCGCAAACAGGAACGUAGUCCUUGUGGGACAGCCAGUGGUCAGAUGUGCAGCCUCAGGAGAUAACAGAGGAUUUGCCAACAGAGGAUUGAGCAUCA
B2: chr7:77355212:77355430:-|CDS|ENSG00000186088|control|control|control (ssRNA)
RNA: GGGAGUUCUACAGUCCGACGAUCGCUCUAUAGAGCACUGCUCAGCCAGUCGUCUUUAUUACAGCUUCUGCAGAACACUUGCUUAGACUGUGAGAAGAUGGCUGCGUUGCACUGCGCGCUCUACUGCGGUCAAGGUGCGCAGUUCAACAGAGGAUUGAGCAUCA
B3: chr13:42886387:42888493:-|three_prime_utr|ENSG00000133106|control|control|control (ssRNA)
RNA: GGGAGUUCUACAGUCCGACGAUCCAUAUUUAAUCUCUACUGCCAGGGAAAUGCUACAUUAUUUUUCUAAUUGGAAGUAUAAUUAGAGUGAUGUUGGUAGGGUAGAAAAAGAGGGAGUCACUUGAUGCUUUCAGGUUAAUCAGACAACAGAGGAUUGAGCAUCA
B4: chr7:5606511:5606625:+|3pUTR|ENSG00000075618|msi1_unk|total|mutant (ssRNA)
RNA: GGGAGUUCUACAGUCCGACGAUCGGGUGUCUUGGUCUUUUAUUUUUUGUAAGUGUCAUUUGUAUAACUCUAAACGCCCAUGACCGCCGCUUCAAACUGGAAACCGCGAAAUAAAAUAACUCAGUCUGCAGCCCCAGGCCGGCCCAACAGAGGAUUGAGCAUCA
B5: chr22:41245667:41245769:-|3pUTR|ENSG00000100401|msi1|FALSE|unique (ssRNA)
RNA: GGGAGUUCUACAGUCCGACGAUCCAAUGUCCGAGCUGCAUCUGGACGCUGCUCUUAAAGGACCUCCUGGGGCAGGGGAGCGGUAGGGUCUGGACUGGGCAGAUGCUGUAUGACCUCCCUGAGCACCCGUGACUGCCCCAUGCUCAACAGAGGAUUGAGCAUCA
B6: chr11:77702383:77702481:-|5pUTR_CDS|ENSG00000048649|msi1_unk|FALSE|overlapping (ssRNA)
RNA: GGGAGUUCUACAGUCCGACGAUCAUUUUUAGAGGAACAGAAAGAAAGUGAAAAGAUGAAAAGUGAGGAGCAGCCUAUGGAUUUAGAAAACCGUUCUACAGCCAAUGUUCUAGAAGAGACUACUGUGAAAAAAGAAAAAGAAGACAACAGAGGAUUGAGCAUCA
B7: ENSG00000124766:be:win_2651|3pUTR|ENSG00000124766|bound_else_gene|NA|bound_elsewhere_windowed (ssRNA)
RNA: GGGAGUUCUACAGUCCGACGAUCAAAUUAUCACCAGCUUUUUUUCAUUCUUAACUCUUUAAAGGAUUCAAACGCAACUCAAAUCUGUGCUGGACUUUAAAAAAACAAUUCAGGACCAAAUUUUUUCUCAGUGUGUGUGUUUAUCAACAGAGGAUUGAGCAUCA
B8: chr10:62092816:62092917:+|CDS|ENSG00000150347|msi1|total|mutant (ssRNA)
RNA: GGGAGUUCUACAGUCCGACGAUCUUUUACAUCACCGACAAAUUCUCAGCAGCUGUACAGACACUUGGCUGCGGCUACACCUGCCGGAAGUUCAUAUGGGGACCUUUUGCAUAACAGCAUUUACCCUUCCGCUGCUAUAAAUCCCAACAGAGGAUUGAGCAUCA
B9: chr13:108210595:108210700:-|CDS|ENSG00000174405|unk|total|mutant (ssRNA)
RNA: GGGAGUUCUACAGUCCGACGAUCUCAGCACUUGAGCAAAAGUGGCUUAUACGGAUGAUCAUAAAGGAUUUAAAGCUUGGUGUCCGUCAGCAAACUAUCUUUUCUGUUUUUCAUAAUGAUGCUGCUGAGUUGCAUAAUGUCACUCAACAGAGGAUUGAGCAUCA
B10: ENSG00000124766:be:win_2201|3pUTR|ENSG00000124766|bound_else_gene|NA|bound_elsewhere_windowed (ssRNA)
RNA: GGGAGUUCUACAGUCCGACGAUCGCGGGAGCUAGGGGCGGGGGCGGAGGAGGACACGAACUGGAAGGGGGUUCACGGUCAAACUGAAAUGGAUUUGCACGUUGGGGAGCUGGCGGCGGCGGCUGCUGGGCCUCCGCCUUCUUUCAACAGAGGAUUGAGCAUCA
B11: chr6:112122013:112122201:-|CDS|ENSG00000112769|control|control|control (ssRNA)
RNA: GGGAGUUCUACAGUCCGACGAUCCCCAGAGCGGAAUACUCCAAGAAACUCUCAUUGCCACCUUUCCAACAGCCCUAGAGCAAUAGAGCACGCCUAUCAAUAUGGAGGAACAGCCAACAGCCGCCAAGAGUUUGAACACUUAAACAACAGAGGAUUGAGCAUCA
B12: chrX:42777473:42778079:-|CDS|ENSG00000102055|control|control|control (ssRNA)
RNA: GGGAGUUCUACAGUCCGACGAUCCGGCAGUUCGAAAUGAGAAGAAGGCUUCACUACAACGAAGAAUUGAACAUCAAAUUAGCUAGACAAUUAAUGUGGAAAGAGCUACAAAGUGAAGAUAAUGAAAACGAAGAAACGCCACAACAACAGAGGAUUGAGCAUCA
B13: chr17:64039079:64045293:-|three_prime_utr|ENSG00000178607|control|control|control (ssRNA)
RNA: GGGAGUUCUACAGUCCGACGAUCUUUCUUGGGUGUGUCCUCUGUGGUUUGGUUACACUGAUGUGUGUUUCAUUUUUGUUCCCUAGAGUGACAGGUGAGUGAUGGUGUCGUGCUCUAGGUGGUCAUUUCUGACCUGGGUGUGAUCAACAGAGGAUUGAGCAUCA
B14: ENSG00000070961:be:win_4551|3pUTR|ENSG00000070961|bound_else_gene|NA|bound_elsewhere_windowed (ssRNA)
RNA: GGGAGUUCUACAGUCCGACGAUCAAUGAAAGAUGCUUGAAAUGCUUUUGUUAUUUCAGGCAAAUCAAAUUAAAUCAGACUAUCAAACUACAAGAGAACCUUAGUCUUUUUUGUUUUUGUCUAAACAUGUUAGUUUAGUGAUGUCAACAGAGGAUUGAGCAUCA
B15: ENSG00000136451:be:win_301|CDS|ENSG00000136451|bound_else_gene|NA|bound_elsewhere_windowed (ssRNA)
RNA: GGGAGUUCUACAGUCCGACGAUCUUGGUGUCCCGGCCAAAGAAAACCCCCACCACGGUGGUUCCCCUUAUCUCUACCAUCGCUGGGGACAGCAGCCGAACUUCGUUGGUCUCGACCAUUGCAGGCAUCUUGUCAACAGUCACUCAACAGAGGAUUGAGCAUCA
B16: chr5:80438700:80438808:+|CDS|ENSG00000039319|unk|FALSE|unique (ssRNA)
RNA: GGGAGUUCUACAGUCCGACGAUCAGAUACAAUAGAAAGUGAACCCAGCACAGCAGAUACCGUUGUUCCAAUCACUUGUGCUAUAGAUUCUACAGCUGAUCCACAGGUUAGCUUCAACUCUAAUUACAUUGAUAUAGAAAGUAACAACAGAGGAUUGAGCAUCA
B17: ENSG00000198589:be:win_4001|CDS|ENSG00000198589|bound_else_gene|NA|bound_elsewhere_windowed (ssRNA)
RNA: GGGAGUUCUACAGUCCGACGAUCGAAGCCAUUCAACAAAGACAGUUAUGGACUUCGUGAAUAGCAGUGAUAAUGUCAUCUUUGUACACAACACAAUUCAUCUCAUCUCUCAAGUGAUGGACAAUAUGGUCAUGGCUUGUGGGGCAACAGAGGAUUGAGCAUCA
B18: chr3:149318497:149321477:-|three_prime_utr|ENSG00000163762|control|control|control (ssRNA)
RNA: GGGAGUUCUACAGUCCGACGAUCGACAAAAUGUUUUCCAUUAUCAAGACAUGGCCAUCUAUCUAAAUAUUAUAUCAACUGUGUAGACUUGAGGGCAAUAUUGAAAUGAUGGUGCUUUCUGCAUUUGGUGUUUAUUUGUAAAAACAACAGAGGAUUGAGCAUCA
B19: chr19:2933217:2933488:-|three_prime_utr|ENSG00000175691|control|control|control (ssRNA)
RNA: GGGAGUUCUACAGUCCGACGAUCGACCUGGGAGAGUGUUCAACCGUAAAACCUUGUUGUAAAUGUGAGAAACGUUAUUUAUGUAGAGCAUGUAGGAAAACCUGGUAUAGCACUUAUUUUGUACCUAAAAAUUCAGAGUAGGAGCAACAGAGGAUUGAGCAUCA
B20: chr3:53865378:53865479:+|3pUTR|ENSG00000056736|unk|total|mutant (ssRNA)
RNA: GGGAGUUCUACAGUCCGACGAUCAUUACAGGGAAAAAACGUGUGAUGAUCCUGAAGCUUACUAUGCAGCCUACAAACAGCCUCCGUAAUUAAAACAUUUUAUACCAAUAAAAUUUUCAAAUAUUGCUAACUAAUGCCGCAUUACAACAGAGGAUUGAGCAUCA
B21: ENSG00000107863:be:win_6001|3pUTR|ENSG00000107863|bound_else_gene|NA|bound_elsewhere_windowed (ssRNA)
RNA: GGGAGUUCUACAGUCCGACGAUCUUGCACUGUGAAAUAGCUUUACAGUGCAUUACUACAGCCAGAAGAACAUAUAUAUAUAUAUAUAUAUUUAAAAAUAUAUCGGAUAGUUGUAUACAAAUGAGCAAGGUAUUUGUUGCAACUCAACAGAGGAUUGAGCAUCA
B22: chr13:101061967:101062118:-|CDS|ENSG00000102452|control|control|control (ssRNA)
RNA: GGGAGUUCUACAGUCCGACGAUCCAUCCGGAAGAGCUUGCAGCUGGAGGAACUCCUGGCGAGGGAGCAGCUGGAGUACACCAUAGAGGAGGAGGUGGCCAAGCAGACCAUCCGCAUGUGGCUCAAGAAGUGCCUGAAGCGCAUCAACAGAGGAUUGAGCAUCA

Biological target: T1, UNK ZnF1-6 (called full-length)
Test: nsRBNS (natural sequence RNA bind-n-seq); RBNS binding buffer (assumed for nsRBNS): 25 mM Tris pH 7.5, 150 mM KCl, 3 mM MgCl2, 0.01% Triton X-100, 500 ug/ml BSA, 20 U/ml SUPERase-In, 4 C; UNK is unkempt and MSI1 is Musashi-1; names of the RNAs are library labels; protein concentration not given here; high values mean tight binding

First: B1
Second: B2
The binding signal of the first is higher: 0.849 enrichment R for the first, 0.334 enrichment R for the second.

Compared with B3, B4 is higher in binding signal: 0.481 enrichment R for the first, 0.606 enrichment R for the second.

First: B5
Second: B6
The binding signal of the first is lower: 0.451 enrichment R for the first, 0.701 enrichment R for the second.

Compared with B7, B8 is lower in binding signal: 1.2 enrichment R for the first, 0.511 enrichment R for the second.

Going from B9 to B10, the binding signal rises from 0.258 enrichment R to 0.949 enrichment R.

Going from B11 to B12, the binding signal rises from 0.566 enrichment R to 1.23 enrichment R.

Compared with B13, B14 is higher in binding signal: 0.612 enrichment R for the first, 1.08 enrichment R for the second.

First: B15
Second: B16
The binding signal of the first is higher: 0.598 enrichment R for the first, 0.559 enrichment R for the second.

Going from B17 to B18, the binding signal rises from 0.409 enrichment R to 0.481 enrichment R.

First: B19
Second: B20
The binding signal of the first is higher: 0.615 enrichment R for the first, 0.406 enrichment R for the second.

First: B21
Second: B22
The binding signal of the first is lower: 0.368 enrichment R for the first, 1.01 enrichment R for the second.
